{"source": "paper PMC4336329", "about": "(PLoS ONE, 2015)", "note": "Screen size: about 310,000 compounds; about 14,000 (4.5%) showed an effect of 50% or more. Effects have a minus sign here. This is one part of the list.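 Also: peak tail current of the secondary pulse compared with the same well before compound.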", "data": [{"target": "human ether-à-go-go-related gene (hERG) potassium channel (human, UniProt Q12809)", "sequence (Q12809 whole entry, looked up)": "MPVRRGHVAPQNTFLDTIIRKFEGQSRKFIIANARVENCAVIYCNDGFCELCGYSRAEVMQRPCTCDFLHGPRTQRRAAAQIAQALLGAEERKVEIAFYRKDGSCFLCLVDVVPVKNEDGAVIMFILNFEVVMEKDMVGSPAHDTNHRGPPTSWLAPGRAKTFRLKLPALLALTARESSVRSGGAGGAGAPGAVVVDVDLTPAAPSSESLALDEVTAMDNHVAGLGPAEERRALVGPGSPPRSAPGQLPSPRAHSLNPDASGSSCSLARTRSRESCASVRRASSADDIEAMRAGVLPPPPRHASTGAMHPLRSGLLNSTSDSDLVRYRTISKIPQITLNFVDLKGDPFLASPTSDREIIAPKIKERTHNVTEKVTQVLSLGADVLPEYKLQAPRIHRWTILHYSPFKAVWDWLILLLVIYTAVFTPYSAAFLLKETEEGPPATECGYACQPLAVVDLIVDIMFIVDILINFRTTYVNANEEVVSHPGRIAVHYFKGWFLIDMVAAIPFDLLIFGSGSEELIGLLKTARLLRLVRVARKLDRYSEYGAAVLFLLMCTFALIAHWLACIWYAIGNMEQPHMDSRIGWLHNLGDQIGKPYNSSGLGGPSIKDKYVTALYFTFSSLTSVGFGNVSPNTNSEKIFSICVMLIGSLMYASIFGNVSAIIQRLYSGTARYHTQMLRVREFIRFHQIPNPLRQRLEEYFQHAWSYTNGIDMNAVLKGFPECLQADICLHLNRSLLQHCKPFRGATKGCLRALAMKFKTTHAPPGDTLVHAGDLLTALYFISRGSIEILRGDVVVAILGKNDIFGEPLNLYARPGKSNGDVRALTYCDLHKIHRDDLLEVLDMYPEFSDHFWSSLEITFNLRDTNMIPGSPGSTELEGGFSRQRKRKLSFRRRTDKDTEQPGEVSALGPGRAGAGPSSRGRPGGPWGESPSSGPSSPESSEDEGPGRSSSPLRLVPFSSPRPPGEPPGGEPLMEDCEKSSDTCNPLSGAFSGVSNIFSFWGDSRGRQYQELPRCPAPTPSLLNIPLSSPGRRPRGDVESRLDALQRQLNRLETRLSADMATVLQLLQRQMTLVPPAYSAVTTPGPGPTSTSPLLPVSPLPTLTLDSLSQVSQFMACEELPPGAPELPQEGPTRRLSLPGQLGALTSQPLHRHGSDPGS", "test": "primary screen, population patch clamp on CHO cells stably expressing hERG", "units": {"hERG current change (%, negative = inhibition) at 10uM": "%"}, "values": [{"smiles": "CCC(=O)Nc1ccc(NC(=O)CCc2ccccc2)cn1", "hERG current change (%, negative = inhibition) at 10uM": 9.32}, {"smiles": "[Cl-].c1ccc(C[n+]2cccc3c4ccccc4ccc32)cc1", "hERG current change (%, negative = inhibition) at 10uM": -15}, {"smiles": "CCC(C)NC(=O)C1CCN(S(=O)(=O)c2ccc(Br)s2)CC1", "note": "(centres unmarked)", "hERG current change (%, negative = inhibition) at 10uM": 0.913}, {"smiles": "COc1ccc(CNC(=O)CC2Sc3ccccc3NC2=O)cc1", "note": "(centres unmarked)", "hERG current change (%, negative = inhibition) at 10uM": 25.1}, {"smiles": "CCOC(=O)C1=NOC2C(=O)N(c3ccc(Cl)cc3Cl)C(=O)C12", "note": "(centres unmarked)", "hERG current change (%, negative = inhibition) at 10uM": 21.3}, {"smiles": "COc1ccc(NC(=O)CSc2nnnn2C)cc1", "hERG current change (%, negative = inhibition) at 10uM": -0.981}, {"smiles": "CC1CCCCC1NC(=O)CN1CCC(O)(c2ccc(F)cc2)CC1", "note": "(centres unmarked)", "hERG current change (%, negative = inhibition) at 10uM": -18}, {"smiles": "O=C(NNC(=O)c1cc2ccccc2cc1O)Nc1ccc(F)cc1F", "hERG current change (%, negative = inhibition) at 10uM": 17}, {"smiles": "O=C1CCCC/C1=C\\Nc1ccc(O)cc1", "hERG current change (%, negative = inhibition) at 10uM": 8.01}, {"smiles": "COc1ccc2c(c1)CCCN2C(N)=O", "hERG current change (%, negative = inhibition) at 10uM": 17.4}, {"smiles": "C=CCNC(=O)CSc1ccc(Cl)cc1", "hERG current change (%, negative = inhibition) at 10uM": 15.2}, {"smiles": "Cc1cc(N2CCN(C(=O)c3cccs3)CC2)c(F)cc1[N+](=O)[O-]", "hERG current change (%, negative = inhibition) at 10uM": -67}, {"smiles": "CCOC(=O)c1cnc2ccc(OC)cc2c1NCCN1CCOCC1", "hERG current change (%, negative = inhibition) at 10uM": -48.5}, {"smiles": "O=[N+]([O-])c1ccc(OCCOCCOc2ccc([N+](=O)[O-])cc2)cc1", "hERG current change (%, negative = inhibition) at 10uM": -16.6}, {"smiles": "CC(C)c1ccc(O)c(NC(=S)NC(=O)c2cccnc2)c1", "hERG current change (%, negative = inhibition) at 10uM": 11}, {"smiles": "COc1cccc(C(=O)Nc2cc3c(cc2Br)OCCCO3)c1", "hERG current change (%, negative = inhibition) at 10uM": -13.1}, {"smiles": "CCCCC1CCC(C(=O)OC(C)C(=O)Nc2ccc(NC(C)=O)cc2)CC1", "note": "(centres unmarked)", "hERG current change (%, negative = inhibition) at 10uM": 15.8}, {"smiles": "CC(C)(NO)/C(=N/O)c1cccs1", "hERG current change (%, negative = inhibition) at 10uM": -21.1}, {"smiles": "COc1ccc(Nc2nc(Nc3ccc(OC)cc3OC)nc(N3CCN(C)CC3)n2)c(OC)c1", "hERG current change (%, negative = inhibition) at 10uM": -22.6}, {"smiles": "Cc1ccc(C(=O)NCC(=O)OCCOc2ccccc2Cl)cc1", "hERG current change (%, negative = inhibition) at 10uM": 1.55}, {"smiles": "O=C(Nc1ccc(Br)cc1)C1CC(c2c(F)cccc2Cl)=NO1", "note": "(centres unmarked)", "hERG current change (%, negative = inhibition) at 10uM": -8.82}, {"smiles": "COc1ccc(-c2nc(=S)[nH][nH]2)cc1", "hERG current change (%, negative = inhibition) at 10uM": 16.7}, {"smiles": "CCOC(=O)C(=O)Nc1nc(-c2ccc3c(c2)CCN3C(=O)C2CC2)c(C)s1", "hERG current change (%, negative = inhibition) at 10uM": 8.4}, {"smiles": "CN1C(=O)/C(=C/c2ccc(N3CCCCCC3)o2)C(=O)NC1=S", "hERG current change (%, negative = inhibition) at 10uM": -6.31}, {"smiles": "S=C(Nc1ccccc1)N1CCN(C(=S)Nc2ccccc2)CC1", "hERG current change (%, negative = inhibition) at 10uM": 25.2}, {"smiles": "S=C(NCc1ccco1)N1CCN(Cc2ccco2)CC1", "hERG current change (%, negative = inhibition) at 10uM": 1.76}, {"smiles": "COCCN1C(=O)C(=O)/C(=C(/O)c2ccc(S(=O)(=O)N3CCCCC3)cc2)C1c1ccc(O)c(OC)c1", "note": "(centres unmarked)", "hERG current change (%, negative = inhibition) at 10uM": 17.9}, {"smiles": "Cc1cccc(Nc2nnc(SCC(=O)NC3CCCc4ccccc43)s2)c1", "note": "(centres unmarked)", "hERG current change (%, negative = inhibition) at 10uM": -6.63}, {"smiles": "COc1ccc(OC)c2[nH]c(C(=O)O)cc12", "hERG current change (%, negative = inhibition) at 10uM": 5.39}, {"smiles": "CCOC(=O)C1=C(c2ccccc2)NC(=O)NC1c1ccc(OC)cc1OC", "note": "(centres unmarked)", "hERG current change (%, negative = inhibition) at 10uM": -0.406}, {"smiles": "O=C(O)CCC(=O)NCc1cn(-c2ccccc2)nc1-c1cccc(Br)c1", "hERG current change (%, negative = inhibition) at 10uM": 15.1}, {"smiles": "CCOc1ccc(C(C)NC(=S)NCc2ccc(F)cc2)cc1", "note": "(centres unmarked)", "hERG current change (%, negative = inhibition) at 10uM": 9.81}, {"smiles": "CS(=O)(=O)N(CC(=O)Nc1ccccc1)c1cccc(Cl)c1Cl", "hERG current change (%, negative = inhibition) at 10uM": 3.26}, {"smiles": "CC1CC(C)CN(S(=O)(=O)c2ccc(F)c(C(=O)Nc3ccc(Cl)cc3F)c2)C1", "note": "(centres unmarked)", "hERG current change (%, negative = inhibition) at 10uM": 12.3}, {"smiles": "Cc1ccc(NC(=O)Cc2noc3ccccc23)cc1", "hERG current change (%, negative = inhibition) at 10uM": 24.6}, {"smiles": "CCn1c(-c2cc(-c3ccccc3OC)nc3ccccc23)n[nH]c1=S", "hERG current change (%, negative = inhibition) at 10uM": -8.18}, {"smiles": "CCOC(=O)c1ccc(NC(=O)CN2C(=O)NC3(CCCCCCC3)C2=O)cc1", "hERG current change (%, negative = inhibition) at 10uM": -7.35}, {"smiles": "CCC(C)N1C(=O)S/C(=C/c2ccc(N3CCOCC3)cc2C)C1=O", "note": "(centres unmarked)", "hERG current change (%, negative = inhibition) at 10uM": 2.7}, {"smiles": "CCOC(=O)c1sc2nc(C)nc(N3CCN(c4ncccn4)CC3)c2c1C", "hERG current change (%, negative = inhibition) at 10uM": 1.82}, {"smiles": "O=C(Nc1cccc(NC(=O)c2ccccc2Cl)c1)c1ccc(F)cc1", "hERG current change (%, negative = inhibition) at 10uM": -13.8}, {"smiles": "O=C(CCN1C(=O)c2cccc3cccc(c23)C1=O)Nc1ccccc1", "hERG current change (%, negative = inhibition) at 10uM": 23.9}, {"smiles": "COc1cccc(-c2nc(CS(=O)(=O)CC(=O)NC3CCCc4ccccc43)c(C)o2)c1", "note": "(centres unmarked)", "hERG current change (%, negative = inhibition) at 10uM": -1.74}, {"smiles": "C/C(=N\\OCC(=O)N/N=C/c1ccc(C)cc1O)c1cccs1", "hERG current change (%, negative = inhibition) at 10uM": 8.57}, {"smiles": "Cc1cc([N+](=O)[O-])nn1CC(=O)NCc1ccco1", "hERG current change (%, negative = inhibition) at 10uM": 1.03}, {"smiles": "O=C(Nc1nc2ccc(F)cc2s1)c1ccccn1", "hERG current change (%, negative = inhibition) at 10uM": -2.4}, {"smiles": "COc1ccc(C(=O)NCCS(=O)(=O)NCc2ccc3c(c2)OCO3)cc1", "hERG current change (%, negative = inhibition) at 10uM": -17.6}, {"smiles": "CCS(=O)(=O)N1CCC(C(=O)Nc2cc(C)ccc2O)CC1", "hERG current change (%, negative = inhibition) at 10uM": 18.6}, {"smiles": "COc1ccc(/C=C/C(=O)NC(=S)Nc2ccc(S(N)(=O)=O)cc2)cc1OC", "hERG current change (%, negative = inhibition) at 10uM": 19.7}, {"smiles": "COc1ccc([C@H]2CC(=O)C=C(c3ccc(C)c4ccccc34)C2)cc1", "hERG current change (%, negative = inhibition) at 10uM": 16.5}, {"smiles": "CC(=O)N(CC(=O)O)c1ccccc1", "hERG current change (%, negative = inhibition) at 10uM": 10.5}, {"smiles": "CC(=O)Nc1ccc(S(=O)(=O)NCC2CCC(C(=O)NCCCOC(C)C)CC2)cc1", "note": "(centres unmarked)", "hERG current change (%, negative = inhibition) at 10uM": -0.857}, {"smiles": "CCCS(=O)(=O)N1CCC(C(=O)NCCCOCC)CC1", "hERG current change (%, negative = inhibition) at 10uM": -1.18}, {"smiles": "Fc1ccc(-n2cc(CNCCc3ccccn3)c(-c3ccccc3Cl)n2)cc1", "hERG current change (%, negative = inhibition) at 10uM": -89.9}, {"smiles": "Cc1c(Cl)cccc1NC(=O)CN1CCN(CCO)CC1", "hERG current change (%, negative = inhibition) at 10uM": 10.5}, {"smiles": "COc1ccc(C(=O)Nc2ccc3ccccc3c2)cc1OC", "hERG current change (%, negative = inhibition) at 10uM": 5.94}, {"smiles": "CCN(Cc1ccc(C#CCCO)cc1)CC1CCCN(CCc2cccc(F)c2)C1", "note": "(centres unmarked)", "hERG current change (%, negative = inhibition) at 10uM": -65.2}, {"smiles": "Cn1c(=O)oc2cc(S(=O)(=O)N3CCN(C(=O)c4ccco4)CC3)ccc21", "hERG current change (%, negative = inhibition) at 10uM": -6.91}, {"smiles": "C=CCC(NCc1ccccc1)c1ccccc1", "note": "(centres unmarked)", "hERG current change (%, negative = inhibition) at 10uM": 1.95}, {"smiles": "Cc1cc(=O)n2[nH]cnc2n1", "hERG current change (%, negative = inhibition) at 10uM": 2.28}]}]}
